Laboratory results published in patent US12258574B2, “Methods and compositions for transducing lymphocytes and regulating the activity thereof” (Exuma Biotech Corp., priority 2016, dated 2025).

Assay: Thermal denaturation by differential scanning calorimetry (DSC)
Details: presence of acyclovir (29.4 μM); 2.77 μM F1A-795, 1X Binding Buffer

For “F1A-795: acyclovir aptamer candidate, most prevalent sequence of family 795; SEQ ID NO:164 (ACAGCGAAGCATAATGGCTACTGACGCCCTCAAACCCTATTTGCAGACT; RNA riboswitch aptamer, listed DNA covers non-stem region only, further chemistry not given here) [Candidate F1A-795]”, the thermal denaturation transition was “about 75 °C”.
